Measured values taken from PubChem BioAssay AID624417 (National Center for Advancing Translational Sciences (NCATS), 2012).
Among all 410,000 compounds or so, about 6,400 (1.6%) were called active. The inconclusive results got no clear call from the source; some entries with a clear call stand among them for comparison. Calls come from the whole dose curve; as a rule, active = well fitted inhibition curve with a large enough effect; inconclusive = small, poorly fitted or top-dose-only effect; inactive = no such curve, though single readings can be large or run the other way. Where the call is inconclusive, the potency comes from a doubtful curve fit.

Target: Glucagon-like peptide 1 receptor (Homo sapiens) (UniProt P43220)
Assay: qHTS of GLP-1 Receptor Inverse Agonists (Inhibition Mode); note: nearly all actives have a fitted effect of over 55% in size
Conditions: HEK293 GLP-1R CRE-luciferase, luminescence, 24 h, GLP-1R form is constitutively active; series mostly up to 38.3 µM
How it was run: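 Stable HEK293 clone (constitutively active GLP-1R + cAMP-response luciferase); 200 cells/uL plated, 12 h pre-culture, compound 24 hr, 37 deg C/5% CO2; detection reagent 12 min RT; luminescence.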
Potency is the fitted concentration of half-maximal effect; tags give direction and shape of the fitted curve.

Chain of UniProt P43220 (P43220 whole entry, looked up): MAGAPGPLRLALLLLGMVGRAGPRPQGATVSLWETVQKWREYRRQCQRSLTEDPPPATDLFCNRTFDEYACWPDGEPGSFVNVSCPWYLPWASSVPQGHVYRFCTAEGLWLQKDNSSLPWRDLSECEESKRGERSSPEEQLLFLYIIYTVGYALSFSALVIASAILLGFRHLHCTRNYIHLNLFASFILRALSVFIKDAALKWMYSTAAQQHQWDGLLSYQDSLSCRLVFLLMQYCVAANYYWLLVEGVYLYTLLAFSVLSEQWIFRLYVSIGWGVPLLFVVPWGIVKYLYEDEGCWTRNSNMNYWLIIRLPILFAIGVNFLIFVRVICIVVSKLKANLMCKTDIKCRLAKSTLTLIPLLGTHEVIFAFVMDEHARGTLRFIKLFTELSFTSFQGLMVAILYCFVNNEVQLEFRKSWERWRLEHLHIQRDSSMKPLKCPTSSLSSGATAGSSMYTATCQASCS

Potency, inactive:
COc1ccc(NC(=O)CC2C(=O)N(c3ccc(F)cc3)C(=S)N2NC(=O)c2ccccc2)cc1 (configuration not stated)
CCC(C)[C@H]1CNC(=O)C(=O)N1CCCc1cc(OC)c(OC)c(OC)c1 (some centres not stated)
O=C1CCNCCN1[C@H](CO)Cc1ccccc1
CC(C)(C)n1nnnc1C(c1cccnc1)N1CCN(C(=O)c2ccco2)CC1 (configuration not stated)
CCc1nnc(NS(=O)(=O)c2ccc(NC(=O)/C=C/c3ccccc3Cl)cc2)s1

Potency, inconclusive:
Cc1nn(C(C)(C)C)c(OC(=O)CC(C)C)c1S(=O)(=O)c1ccccc1 8.91 µM [inhibitor, partial curve, poor fit]
CCC(=O)O[C@]1(C(=O)CCl)[C@@H](C)C[C@H]2[C@@H]3CCC4=CC(=O)C=C[C@]4(C)[C@@]3(F)[C@@H](O)C[C@@]21C 20 µM [inhibitor, partial curve, poor fit]
O=S(=O)(c1ccc(F)cc1)N1CCN(Cc2cc3c(cc2Br)OCCO3)CC1 14.1 µM [inhibitor, single point]
CCN(CC)S(=O)(=O)c1cccc(NC(=O)c2cc3ccccc3o2)c1 22.4 µM [inhibitor, single point]
CC(Oc1ccc2oc3ccccc3c2c1)C(=O)NC12CC3CC(CC(C3)C1)C2 (configuration not stated) 10 µM [inhibitor, partial curve]
COc1ccccc1Nc1sc(C(=O)c2ccc(F)cc2)c(N)c1S(=O)(=O)c1ccc(C)cc1 3.55 µM [inhibitor, partial curve, poor fit]
Cn1cc(C(=O)N/N=C/c2cccs2)c2ccccc21 31.6 µM [inhibitor, single point]
O=Cc1ccc2c(c1)CCN2Cc1ccccc1 10 µM [inhibitor, partial curve, poor fit]
CC(C)CCNCC(O)CON=C1c2ccccc2-c2ccccc21 (configuration not stated) 11.2 µM [inhibitor, partial curve, poor fit]
CN1CCN(C2CCN(c3cccc(Cl)c3)CC2)CC1CCO (configuration not stated) 31.6 µM [inhibitor, single point]
COc1ccc(Br)cc1S(=O)(=O)Nc1cc(-c2cn3ccccc3n2)ccc1C 8.91 µM [inhibitor, partial curve, poor fit]
C[C@@]12C(=O)Nc3ccc(F)cc3C(=O)N1[C@H]1c3ccccc3OC[C@@H]1[C@@H]2c1ccccc1 11.2 µM [inhibitor, single point]
Cc1ccc(S(=O)(=O)CC(=O)c2ccc(C(C)(C)C)cc2)cc1 10 µM [inhibitor, partial curve, poor fit]
CCCCCCCCN1C(=O)[C@H](CC(=O)N2CCN(C(=O)C3CC3)CC2)C[C@@]2(C(=O)OCC)CCCC=C12 28.2 µM [inhibitor, single point]
COc1ccc(CN(C)C(=O)CCl)cc1 10 µM [inhibitor, single point]
CC(=O)Nc1ccc(Nc2cc(C)nc3c(-c4ccccc4)cnn23)cc1 15.8 µM [inhibitor, partial curve, poor fit]
CC(C)N(C(=O)CSc1cn(CC(=O)N2CCCCCC2)c2ccccc12)C(C)C 10 µM [inhibitor, single point]
COc1ccc(-c2coc3c(C(=O)NCc4ccc(C(F)(F)F)cc4)cccc23)c(C)c1 11.2 µM [inhibitor, partial curve, poor fit]
CCOC(=O)c1cc2c(=Cc3ccc(N(C)C)cc3)c3ccccc3n2[n+]1C 0.891 µM [inhibitor, full curve, poor fit]
N#Cc1ccc(C(C(=O)NCc2ccccc2)n2c(=O)c(-c3cc4ccccc4[nH]3)nc3ccccc32)cc1 (configuration not stated) 7.08 µM [inhibitor, partial curve, poor fit]
O=C(NCc1cccs1)c1cc(-c2ccc(O)cc2)on1 28.2 µM [inhibitor, single point]
Cc1cccc(CC(=O)N2CC(=O)Nc3ccc(Br)cc3C2c2ccc(F)cc2)c1 (configuration not stated) 20 µM [inhibitor, single point]
CCc1cccc(-n2nnc(-c3nsc(NC(=O)c4cccc(OC)c4)n3)c2C)c1 1.78 µM [inhibitor, partial curve, poor fit]
Cc1ccc(C(=O)N2CC3(C(C)C)CN(C(=O)c4ccc(C)cc4)CC(C(C)C)(C2)C3=O)cc1 1 µM [inhibitor, full curve, poor fit]
CN(C)CCCC1Sc2ccccc2Sc2ccccc21 (configuration not stated) 4.47 µM [inhibitor, full curve]
CCC(=O)c1ccc(/C=C/c2nc3ccccc3n2C)o1 10 µM [inhibitor, partial curve]
Cc1cc(C)n(-c2nc3ccccc3c(=O)n2OCCOc2ccccc2)n1 28.2 µM [inhibitor, single point]
COc1ccc(S(=O)(=O)N2c3ccccc3OCC2CC(=O)O)cc1 (configuration not stated) 11.2 µM [inhibitor, single point]
COc1cccc2sc(N(CCN(C)C)C(=O)c3ccc(S(=O)(=O)N4CCCC4)cc3)nc12 7.94 µM [inhibitor, partial curve, poor fit]
O=C1CCN(Cc2ccccc2)C=C1c1ccc(Br)cc1 22.4 µM [inhibitor, single point]
Fc1ccc(CSc2nnc(-c3cccnc3)n2Cc2ccco2)cc1 0.501 µM [inhibitor, full curve, poor fit]
COc1cc(/C=N/NC(=S)Nc2cccc(Cl)c2C)ccc1OCC(=O)N1CC(C)OC(C)C1 (configuration not stated) 10 µM [inhibitor, partial curve]
